Data on three molecules can be found in publication PMC4005756.

By UniProt entry, the sequences of proteins in these tests, tags left out.
UniProt P00519: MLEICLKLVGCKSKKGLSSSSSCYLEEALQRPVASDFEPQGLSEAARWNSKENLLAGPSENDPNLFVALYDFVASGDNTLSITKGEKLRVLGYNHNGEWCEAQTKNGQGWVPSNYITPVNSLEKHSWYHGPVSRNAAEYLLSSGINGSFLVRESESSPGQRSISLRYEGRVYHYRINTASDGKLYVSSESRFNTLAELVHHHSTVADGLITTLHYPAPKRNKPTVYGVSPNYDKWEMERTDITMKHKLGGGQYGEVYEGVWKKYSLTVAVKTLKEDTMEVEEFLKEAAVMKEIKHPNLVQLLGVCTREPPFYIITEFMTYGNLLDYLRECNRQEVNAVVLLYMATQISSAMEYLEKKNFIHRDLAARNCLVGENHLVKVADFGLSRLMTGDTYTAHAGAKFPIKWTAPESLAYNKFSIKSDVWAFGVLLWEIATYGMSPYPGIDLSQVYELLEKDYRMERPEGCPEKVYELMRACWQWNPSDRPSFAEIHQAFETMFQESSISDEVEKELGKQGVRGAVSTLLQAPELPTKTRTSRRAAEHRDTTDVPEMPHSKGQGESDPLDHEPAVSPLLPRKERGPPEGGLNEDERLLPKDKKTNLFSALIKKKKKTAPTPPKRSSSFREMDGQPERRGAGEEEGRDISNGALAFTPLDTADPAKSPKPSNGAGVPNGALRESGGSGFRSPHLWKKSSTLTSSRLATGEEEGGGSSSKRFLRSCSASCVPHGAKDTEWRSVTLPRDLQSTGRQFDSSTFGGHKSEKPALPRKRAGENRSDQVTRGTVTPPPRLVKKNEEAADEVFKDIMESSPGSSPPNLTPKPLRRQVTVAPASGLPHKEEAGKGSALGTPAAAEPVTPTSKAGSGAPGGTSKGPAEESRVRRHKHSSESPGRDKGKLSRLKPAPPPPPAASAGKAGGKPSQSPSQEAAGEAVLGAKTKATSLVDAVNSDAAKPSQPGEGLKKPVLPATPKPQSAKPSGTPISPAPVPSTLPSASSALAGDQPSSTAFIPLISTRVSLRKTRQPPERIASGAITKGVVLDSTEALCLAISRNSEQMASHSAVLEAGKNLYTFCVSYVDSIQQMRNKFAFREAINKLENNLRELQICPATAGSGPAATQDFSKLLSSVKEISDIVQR

Results are given in words; binding and its absence hold for the method and conditions named. In cells and extracts the contact can be indirect. Some results given as binding are weak or reduced against the parent protein; the word gives no strength.

The target in assay [1] is T1, geminin (human (endogenous in HME)) (UniProt O75496).
T1 sequence: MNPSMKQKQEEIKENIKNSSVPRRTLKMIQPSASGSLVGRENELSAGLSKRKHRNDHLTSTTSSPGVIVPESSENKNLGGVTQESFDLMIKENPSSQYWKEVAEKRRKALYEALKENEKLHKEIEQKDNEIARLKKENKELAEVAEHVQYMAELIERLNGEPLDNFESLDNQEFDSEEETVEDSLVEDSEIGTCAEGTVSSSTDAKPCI
Kind of assay: co-IP; anti-geminin antibody IP from sonicated extracts of G2/M-synchronized HME cells; co-precipitated proteins cut from a gel and identified by micro-sequencing.

Assay [2] has as its target T1, geminin (human (endogenous in HME)). Kind of assay: co-IP; anti-geminin antibody IP from sonicated extracts of S-synchronized HME cells; co-precipitated proteins cut from a gel and identified by micro-sequencing.
In assay [3] the target is T2, Cdt1 (human (endogenous in HME)) (UniProt Q9H211).
T2 sequence: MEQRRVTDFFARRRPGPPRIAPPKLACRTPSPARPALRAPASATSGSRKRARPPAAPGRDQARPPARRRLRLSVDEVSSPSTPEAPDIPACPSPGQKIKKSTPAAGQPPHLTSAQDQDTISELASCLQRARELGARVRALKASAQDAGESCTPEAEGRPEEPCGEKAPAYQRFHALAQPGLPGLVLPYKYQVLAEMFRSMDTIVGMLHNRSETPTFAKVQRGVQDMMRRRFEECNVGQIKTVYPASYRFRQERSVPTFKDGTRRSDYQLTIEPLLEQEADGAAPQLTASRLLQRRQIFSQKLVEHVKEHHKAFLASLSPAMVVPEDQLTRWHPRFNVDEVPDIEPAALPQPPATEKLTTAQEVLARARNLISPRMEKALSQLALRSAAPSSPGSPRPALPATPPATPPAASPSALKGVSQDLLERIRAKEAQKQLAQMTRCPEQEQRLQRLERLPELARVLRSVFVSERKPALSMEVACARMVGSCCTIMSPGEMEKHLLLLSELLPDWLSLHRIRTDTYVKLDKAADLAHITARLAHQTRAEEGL
The assay is described as follows: condition: only cycling, G0/G1-, G2/M- or M/G1-synchronized cells; co-IP; anti-Cdt1 antibody IP from sonicated cycling or G0/G1-, G2/M- and M/G1-synchronized HME cells (extracts other than S phase), immunoblot with anti-geminin antibody. (In general: A western blot detects proteins with antibodies after separation by electrophoresis.)

Assay [4] deals with c-Abl (human (endogenous in HME)) (UniProt P00519). The assay is described as follows: co-IP; anti-Cdt1 or anti-c-Abl antibody IP from sonicated synchronized HME cells (S for Cdt1; G2/M and M/G1 for c-Abl), immunoblot with anti-geminin antibody.
For assay [5], the target named is T2, Cdt1 (human (endogenous in HME)). The assay is described as above.

Take “c-Abl (from UniProt P00519 1-1130) (enzyme)”: the binding result in assay [1] is listed as “binds”; in assay [2], “no binding (condition: S-phase-synchronized cells)”.

B1: Cdt1 (protein, UniProt Q9H211 1-546)
chain: T2 sequence
B1: the figures for the binding result in assay [1] and in assay [2] were “no binding (condition: G2/M-synchronized cells)” and “binds”, respectively.

B2: geminin (protein, UniProt O75496 1-209)
chain: T1 sequence
B2: the binding entry in assay [3] was “no binding”; in assay [4] it was “binds”; in assay [5], “binds”.
